# Hit rate of the full screen: of about 220,000 compounds, about 5,700 (2.6%) were called active. Inconclusive results, whose numbers are uncertain, are shown with a selection of clear calls. The call rests on the fitted dose curve; in most records, active means well fitted inhibition curve with a large enough effect; inconclusive means small, poorly fitted or top-dose-only effect; inactive means no such curve, though single readings can be large or run the other way. Where the call is inconclusive, the potency comes from a doubtful curve fit.
# Target: Lysine-specific demethylase 5B (Homo sapiens) (UniProt Q9UGL1)
# Experiment: Primary screen for KDM5B Histone Demethylases FDH-coupled qHTS; further: nearly all actives have a fitted effect of over 70% in size; on activity change, negative = inhibition: 0% is about no effect
# Conditions: FDH-coupled NADH fluorescence (FDH is formaldehyde dehydrogenase); activity change, negative = inhibition: at 57.7 µM (top of the series) unless noted
# Summary of the method: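 Measured: NADH fluorescence change, 30 min, RT. System: KDM5BΔAP 200 nM final, H3K4me3 peptide, α-KG, Fe(II), ascorbate, NAD⁺ plus FDH, pH 7.5 HEPES. Compounds: titrated, 10 min pre-incubation with enzyme.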
# Potency means the concentration at half of the fitted maximal effect; tags describe the fitted curve by direction and shape.
# Sequence of UniProt Q9UGL1 (Q9UGL1 whole entry, looked up): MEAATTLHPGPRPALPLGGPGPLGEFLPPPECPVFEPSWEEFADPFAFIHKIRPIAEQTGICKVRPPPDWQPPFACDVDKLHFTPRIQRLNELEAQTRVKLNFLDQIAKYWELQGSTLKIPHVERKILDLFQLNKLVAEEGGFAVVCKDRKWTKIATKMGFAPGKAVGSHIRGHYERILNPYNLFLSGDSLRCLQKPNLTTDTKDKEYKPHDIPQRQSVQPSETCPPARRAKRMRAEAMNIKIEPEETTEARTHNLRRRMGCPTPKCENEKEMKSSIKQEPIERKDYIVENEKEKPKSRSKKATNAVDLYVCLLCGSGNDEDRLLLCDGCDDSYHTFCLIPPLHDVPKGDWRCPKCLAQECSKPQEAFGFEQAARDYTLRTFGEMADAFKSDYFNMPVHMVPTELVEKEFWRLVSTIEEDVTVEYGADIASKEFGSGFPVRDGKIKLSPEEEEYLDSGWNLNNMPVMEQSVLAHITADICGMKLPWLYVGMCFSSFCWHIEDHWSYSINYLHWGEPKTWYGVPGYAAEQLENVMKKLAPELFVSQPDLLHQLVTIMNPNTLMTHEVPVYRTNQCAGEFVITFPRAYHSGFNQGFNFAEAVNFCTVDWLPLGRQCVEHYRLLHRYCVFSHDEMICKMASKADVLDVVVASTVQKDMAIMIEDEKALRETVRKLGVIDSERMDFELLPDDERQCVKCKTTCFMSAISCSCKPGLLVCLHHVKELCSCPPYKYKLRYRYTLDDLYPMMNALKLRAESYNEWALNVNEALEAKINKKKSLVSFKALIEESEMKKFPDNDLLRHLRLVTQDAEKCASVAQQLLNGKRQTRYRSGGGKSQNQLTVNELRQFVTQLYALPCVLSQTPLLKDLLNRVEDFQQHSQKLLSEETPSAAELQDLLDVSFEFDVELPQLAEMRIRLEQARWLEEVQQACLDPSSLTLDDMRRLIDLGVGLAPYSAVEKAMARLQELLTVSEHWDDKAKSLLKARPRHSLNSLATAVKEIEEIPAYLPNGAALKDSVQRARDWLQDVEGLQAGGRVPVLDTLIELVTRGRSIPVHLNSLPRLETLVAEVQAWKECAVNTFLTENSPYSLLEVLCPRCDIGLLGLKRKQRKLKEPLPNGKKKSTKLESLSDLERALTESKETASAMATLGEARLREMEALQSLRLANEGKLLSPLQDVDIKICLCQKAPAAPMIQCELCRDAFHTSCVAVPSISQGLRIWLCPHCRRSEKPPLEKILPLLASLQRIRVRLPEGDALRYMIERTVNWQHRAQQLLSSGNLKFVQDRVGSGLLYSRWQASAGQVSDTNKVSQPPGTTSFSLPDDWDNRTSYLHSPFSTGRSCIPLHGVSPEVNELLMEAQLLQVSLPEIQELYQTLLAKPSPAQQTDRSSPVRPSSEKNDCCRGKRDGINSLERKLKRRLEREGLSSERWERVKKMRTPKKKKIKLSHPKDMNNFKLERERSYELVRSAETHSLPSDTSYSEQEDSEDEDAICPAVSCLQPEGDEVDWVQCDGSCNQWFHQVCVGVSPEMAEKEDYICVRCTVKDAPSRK
SMILES,Potency,"activity change, negative = inhibition"
CCOc1ccc(CNC(=O)c2ccc(Sc3ccc(Cl)cc3)c(NC(C)=O)c2)cc1,"inconclusive: 20 µM [inhibitor, partial curve, poor fit]",
Cc1cc(C(=O)CSc2ccc(Br)cc2)c(C)[nH]1,"inconclusive: 14.1 µM [inhibitor, partial curve, poor fit]",
CN(Cc1ccccc1)c1ncccc1CNC(=O)c1ccnn1C,"inconclusive: 31.6 µM [inhibitor, partial curve, poor fit]",
COc1cc(CN(CC2CCCO2)C(=O)COc2ccc(Cl)cc2C)cc(OC)c1OC (stereo unspecified),inactive,
COc1ccc(NC(=O)CSc2cn(CC(=O)N3CCCCC3)c3ccccc23)c(OC)c1,"inconclusive: 35.5 µM [inhibitor, single point]",
CCN(CC)c1nn2c(=O)c(C(=O)NCCc3ccc(C)cc3)cnc2s1,"inconclusive: 2.51 µM [inhibitor, partial curve, poor fit]",
CCn1c2ccccc2c2nnc(N3CCN(c4ccc(F)cc4)CC3)nc21,inactive,
COC(=O)c1ccc(COC(=O)c2csc3c2CCCC3)o1,inactive,
Cc1nn(-c2nc3ccccc3o2)c2c1C(c1cccc(Cl)c1Cl)CC(=O)N2 (stereo unspecified),inactive,
CCOC(=O)c1cc2c(=O)n3ccccc3nc2n(CC2CCCO2)c1=NC(=O)c1ccc(C(C)(C)C)cc1 (stereo unspecified),"inconclusive: 14.1 µM [inhibitor, partial curve, poor fit]",
CCc1cccc(NC(=O)N2CCc3c(nc(-c4ccc(OC)cc4)[nH]c3=O)C2)c1,"inconclusive: 25.1 µM [inhibitor, partial curve, poor fit]",
CN(C)c1ccc(C(=O)N2CC[C@@H](CC(=O)O)[C@@H](CCN3C[C@@H]4C[C@H](C3)c3cccc(=O)n3C4)C2)cc1,"inconclusive: 15.8 µM [inhibitor, partial curve]",
O=C(OCC(=O)C12CC3CC(CC(C3)C1)C2)c1ccccc1Sc1ccc(C(F)(F)F)cc1[N+](=O)[O-],inactive,
CN(C)CCN(CC1CCCCC1)C(=O)Nc1ccc(Cl)cc1,inactive,
COc1ccc(CN2CC[C@H](c3nc4c(C(N)=O)cccc4[nH]3)C2)cc1,"inconclusive: 39.8 µM [inhibitor, partial curve, poor fit]",
C#CCNC(=O)c1nc(-c2ccc(Cl)cc2Cl)c2ccccn12,active: 89.1 µM,
COc1ccc(OCc2ccc(-c3nc(C#N)c(N4CCN(C)CC4)o3)o2)cc1,"inconclusive: 35.5 µM [inhibitor, partial curve, poor fit]",
CN(C)C[C@@H]1CN(Cc2ccncc2)C[C@H]1NC(=O)c1ccc(F)cc1,"inconclusive: 25.1 µM [inhibitor, single point]",
Cc1ccc(-n2nc(C)c([C@H]3C=C[C@@H](OC(=O)Nc4cccc(C(F)(F)F)c4)C3)c2C)cc1Cl,inactive,
Cn1nc(C(=O)NC2CCN(c3cc(-c4ccccc4)[nH]n3)CC2)c2ccccc21,"inconclusive: 31.6 µM [inhibitor, partial curve]",
Cc1cn2nc(C(=O)NCc3ccccc3C)cc2c(N(C)Cc2ccccc2)n1,active: 14.1 µM,

SMILES,Potency,"activity change, negative = inhibition"
COCCCNc1ncnc2c1CN(C1CCC1)C(=O)CN2C,"inconclusive: 89.1 µM [inhibitor, partial curve, poor fit]",
CN(C)C[C@@H]1CN(C2CCOCC2)C[C@H]1NC(=O)c1ccco1,"inconclusive: 15.8 µM [inhibitor, single point]",
CC(C(=O)Nc1ccc2c(c1)OCO2)N1CCN(C)CC1 (stereo unspecified),"inconclusive: 6.31 µM [inhibitor, full curve, poor fit]",
O=C(NCc1ccc(C(F)(F)F)cc1)c1cc(Br)cn2ccnc12,active: 14.1 µM,
O=C1CCCN1CCCN1C(=O)[C@@H]2C[C@@H](O)CN2C2(CN(Cc3ccc(OC(F)(F)F)cc3)C2)C1=O,"inconclusive: 20 µM [inhibitor, single point]",
COc1ccccc1-c1cc2c(ccn2C)c(C(=O)NCCc2ccccn2)n1,active: 35.5 µM,
CCCCN(CCCC)c1ncnc2c1cnn2-c1cccc(C)c1,"inconclusive: 1.26 µM [inhibitor, full curve, poor fit]",
COCCNS(=O)(=O)c1cc(C(=O)O)cc(-c2ccc(OC)c(F)c2)c1,"inconclusive: 25.1 µM [inhibitor, single point]",
Cc1ccc(NC(=O)CC2C(=O)OCCN2Cc2ccccc2)cc1Cl (stereo unspecified),inactive,
CCOc1cc(CNS(=O)(=O)c2ccc3c(c2)CC(=O)N3C)cc(OCC)c1OCC,,inconclusive: -41.4% [inhibitor] [at 11.5 µM]
COc1ccc(NC(=O)C(C)(C)Oc2nn(CC3CC3)c3ccc(CN4CCCC4)cc23)cc1,"inconclusive: 25.1 µM [inhibitor, partial curve]",
COc1ccc(-c2nn(C)c(-c3ccc(OC)cc3)c2-c2nc3ccccc3n2C)cc1,inactive,
O=C(C1CCN(C(=O)N2CC3CC(C2)[C@H]2CCCC(=O)N2C3)CC1)N1CCN(c2ccccn2)CC1 (stereo partly specified),active: 25.1 µM,
COCCCNc1nc2ccccc2nc1NS(=O)(=O)c1ccc(F)cc1,"inconclusive: 28.2 µM [inhibitor, partial curve, poor fit]",
c1ccc(OCc2noc(-c3ccc(NC4CCSC4)nc3)n2)cc1 (stereo unspecified),active: 28.2 µM,
O=C1Nc2ccc(-c3ccc(Cl)cc3)cc2C(=O)N2CCN(C(=O)c3cccnc3)C[C@H]12,"inconclusive: 28.2 µM [inhibitor, partial curve, poor fit]",
C=CCNc1nc(-c2c(C(=O)OC)c(C)n(C3CC3)c2C)cs1,inactive,
Cc1ccccc1-c1[nH]nc2ncc(-c3cccnc3)nc12,active: 44.7 µM,
COCC1CN(C)CC12CCN(C(=O)NC1CCCCC1)CC2 (stereo unspecified),"inconclusive: 12.6 µM [inhibitor, partial curve, poor fit]",
Cc1ccc(CN(C(=O)c2cc(=O)c3cc(Cl)c(C)cc3o2)c2ccccn2)o1,"inconclusive: 17.8 µM [inhibitor, single point]",

# Reference: PubChem BioAssay AID1347165 (National Center for Advancing Translational Sciences (NCATS), 2019)
